From PMC8012719 (Frontiers in Pharmacology, 2021)

Details: Figure 5B

With `CC(C)N=c1cc2n(-c3ccc(Cl)cc3)c3ccccc3nc-2cc1Nc1ccc(Cl)cc1` [CFZS, Clofazimine salicylates] as the compound, how does the Solubility read?
The Solubility was 0.86 µg/mL (≈ 1.82 µM).

With `CC(C)N=c1cc2n(-c3ccc(Cl)cc3)c3ccccc3nc-2cc1Nc1ccc(Cl)cc1` [CFZA, Clofazimine aspirin salt] as the compound, how does the Solubility read?
Its Solubility is 4.00 µg/mL.

For `CC(C)N=c1cc2n(-c3ccc(Cl)cc3)c3ccccc3nc-2cc1Nc1ccc(Cl)cc1` [CFZG, Clofazimine gallic acid salt], which Solubility is on record?
Its Solubility is 43.60 µg/mL.

For `CC(C)N=c1cc2n(-c3ccc(Cl)cc3)c3ccccc3nc-2cc1Nc1ccc(Cl)cc1` [CFZH, Clofazimine hydrochloride salt], which Solubility is on record?
The Solubility was 7.66 µg/mL.

Which Solubility does the source give for `CC(C)N=c1cc2n(-c3ccc(Cl)cc3)c3ccccc3nc-2cc1Nc1ccc(Cl)cc1` [CFZM, Clofazimine methanesulfonate] here?
The Solubility was 18.34 µg/mL.

In brackets after ≈: the same amount, converted by molar mass. Counter-ions that a name gives are not always drawn.
